From the supplement of paper PMC10126150
Sequences with one replicate were seen in a single cluster, so their values are uncertain.
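Also: ATP exposure 15 min at 22 °C before imaging.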

Each sequence was assayed on ATP (assay: switch fluorescence ratio, 500 uM ATP over buffer (Cy3 cluster intensity, sum of 5 cycles each) (fold (ratio)); higher = stronger signal-on switching upon ATP binding; sequences stand for … in TCGTCGGCAGCGTCAGATGTGTATAAGAGACAGTTTTTTTTTTTTTTTTTTTTTTTTT…TC). Details: aptamer strand: ATP DNA aptamer (quencher-CACCTGGGGGAGTATTGCGGAGGAAGG + anchor), 100 nM annealed; ATP concentration: 500 uM; one replicate.
Outline: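 Five buffer/ATP imaging cycles were run on Cy3-labelled switching-strand clusters on a modified Illumina MiSeq flow-cell, with NaOH stripping and re-annealing between cycles. In each cycle, clusters annealed to 100 nM quencher-labelled ATP aptamer were imaged in selection buffer, then after 15 min with 500 uM ATP at 22 °C. Per cluster, the fluorescence ratio is summed target-cycle over summed buffer-cycle Cy3 intensity, averaged per switch-domain sequence. Only clusters within 100-1000 RFU were kept.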
TGCGTTGGAA was tested, and the switch fluorescence ratio was 0.998. TGCTAAAGAG was tested, and the switch fluorescence ratio was 0.956. Sequence TGCTACAT has a switch fluorescence ratio of 1.05. Work on TGCTACGAGT yielded a switch fluorescence ratio of 1.02. For TGCTACTACG, the switch fluorescence ratio was 1.01. In the case of TGCTAGCAAC, the switch fluorescence ratio was 0.998. TGCTATAATA showed a switch fluorescence ratio of 0.961. For TGCTATATAT, the switch fluorescence ratio was 0.992. Work on TGCTCACTGG yielded a switch fluorescence ratio of 1.01. TGCTCCGTCA gave a switch fluorescence ratio of 1.89. In the case of TGCTCGAACT, the switch fluorescence ratio was 0.998. TGCTCGACGT showed a switch fluorescence ratio of 0.98. TGCTCTCGCA gave a switch fluorescence ratio of 1.45. TGCTGACGAG gave a switch fluorescence ratio of 0.987. With TGCTGCTGCT the switch fluorescence ratio was 0.961. Work on TGCTGCTTCG yielded a switch fluorescence ratio of 0.98. Sequence TGCTGGAAGC has a switch fluorescence ratio of 1. With TGCTGGAGGC the switch fluorescence ratio was 1.01. With TGCTGGCGAA the switch fluorescence ratio was 1.02. TGCTGGGGC was tested, and the switch fluorescence ratio was 1.04. With TGCTGGGGG the switch fluorescence ratio was 1.04. In the case of TGCTGGTCCG, the switch fluorescence ratio was 0.959. TGCTGGTT gave a switch fluorescence ratio of 1. For TGCTGGTTAT, the switch fluorescence ratio was 1.02. In the case of TGCTGTATCA, the switch fluorescence ratio was 1.02. TGCTTCATC gave a switch fluorescence ratio of 1.07. Work on TGCTTGGCAA yielded a switch fluorescence ratio of 1.06. For TGCTTTCAGG, the switch fluorescence ratio was 0.978. With TGCTTTGACA the switch fluorescence ratio was 0.978. TGCTTTGGAT showed a switch fluorescence ratio of 0.986. With TGCTTTGTAC the switch fluorescence ratio was 1.18. With TGGAAAAGAC the switch fluorescence ratio was 1.01. TGGAAACACT gave a switch fluorescence ratio of 1.04. TGGAAAGGTG was tested, and the switch fluorescence ratio was 1.01. With TGGAACAGAA the switch fluorescence ratio was 1. TGGAAGAAGA showed a switch fluorescence ratio of 1.1. With TGGAAGAAGC the switch fluorescence ratio was 1. In the case of TGGAAGCAGC, the switch fluorescence ratio was 1.08. For TGGAAGTCGT, the switch fluorescence ratio was 0.999. For TGGAATACGG, the switch fluorescence ratio was 1.3. Sequence TGGAATAGAG has a switch fluorescence ratio of 1. TGGAATTCAC was tested, and the switch fluorescence ratio was 0.998. For TGGACACTTC, the switch fluorescence ratio was 0.983. Work on TGGACATA yielded a switch fluorescence ratio of 1.05. Work on TGGACCGCGC yielded a switch fluorescence ratio of 0.973. With TGGACCTGAT the switch fluorescence ratio was 1.04. For TGGACGACCC, the switch fluorescence ratio was 1.44. Sequence TGGACGCCGG has a switch fluorescence ratio of 0.95. Sequence TGGAGCTGAC has a switch fluorescence ratio of 1.05. TGGAGGAAAC gave a switch fluorescence ratio of 1.05. TGGAGGCACA showed a switch fluorescence ratio of 1.05. TGGAGGCATT gave a switch fluorescence ratio of 1.01. TGGAGGCTTC was tested, and the switch fluorescence ratio was 0.968. In the case of TGGAGTAGGC, the switch fluorescence ratio was 0.752. In the case of TGGAGTATAT, the switch fluorescence ratio was 1.01. TGGAGTTCCG was tested, and the switch fluorescence ratio was 0.98. TGGATAAGCA showed a switch fluorescence ratio of 0.993. With TGGATAGAAG the switch fluorescence ratio was 1.04. For TGGATATCCA, the switch fluorescence ratio was 1.02. With TGGATCATCA the switch fluorescence ratio was 1. In the case of TGGATCCGGG, the switch fluorescence ratio was 1.01. TGGATCTGGA showed a switch fluorescence ratio of 0.966. With TGGATCTGGT the switch fluorescence ratio was 0.978. Sequence TGGATGAAG has a switch fluorescence ratio of 0.978. TGGATGGGAC showed a switch fluorescence ratio of 0.966. With TGGATGTAGG the switch fluorescence ratio was 1.02. Work on TGGATTCCGT yielded a switch fluorescence ratio of 1. For TGGATTGCTC, the switch fluorescence ratio was 1.56. TGGCAAGGTC was tested, and the switch fluorescence ratio was 1.02. TGGCAATCGG was tested, and the switch fluorescence ratio was 1.08. With TGGCACCCCT the switch fluorescence ratio was 1.01. Work on TGGCACGTCG yielded a switch fluorescence ratio of 1.1. In the case of TGGCAGATTT, the switch fluorescence ratio was 1.02. Sequence TGGCAGCTGG has a switch fluorescence ratio of 1. TGGCAGTGCT gave a switch fluorescence ratio of 0.986. Sequence TGGCATCAC has a switch fluorescence ratio of 1.08. Work on TGGCCAAAC yielded a switch fluorescence ratio of 0.999. TGGCCACGTA was tested, and the switch fluorescence ratio was 0.988. Work on TGGCCAGGGG yielded a switch fluorescence ratio of 1.18. Sequence TGGCCATTG has a switch fluorescence ratio of 0.91. In the case of TGGCCCATCG, the switch fluorescence ratio was 0.993. With TGGCCCTCAG the switch fluorescence ratio was 0.996. In the case of TGGCCGCGAC, the switch fluorescence ratio was 1.76. For TGGCCGCTAG, the switch fluorescence ratio was 1.06. With TGGCCGTCTG the switch fluorescence ratio was 1.07. Sequence TGGCCTTA has a switch fluorescence ratio of 0.983. TGGCCTTCCG showed a switch fluorescence ratio of 1.01. TGGCCTTTGA gave a switch fluorescence ratio of 0.99. In the case of TGGCGAGGGT, the switch fluorescence ratio was 0.979. For TGGCGATCTG, the switch fluorescence ratio was 0.986. Work on TGGCGCAAAT yielded a switch fluorescence ratio of 1.18. Sequence TGGCGGGCAC has a switch fluorescence ratio of 1.05. For TGGCGTATG, the switch fluorescence ratio was 0.992. Work on TGGCTACT yielded a switch fluorescence ratio of 1.14. TGGCTCGGCC gave a switch fluorescence ratio of 1.06. With TGGCTGAATT the switch fluorescence ratio was 0.991. TGGCTGCGCG showed a switch fluorescence ratio of 1. TGGCTTCCGG gave a switch fluorescence ratio of 1.14. Sequence TGGCTTTGT has a switch fluorescence ratio of 1.01. TGGGAATAAA gave a switch fluorescence ratio of 0.968.
